Results reported in publication PMC4336329 (PLoS ONE, 2015).
Among all 310,000 compounds or so, about 14,000 (4.5%) showed an effect of 50% or more. Effects have a minus sign here. Some of the results follow.

target: human ether-à-go-go-related gene (hERG) potassium channel (human, UniProt Q12809); assay: primary screen, population patch clamp on CHO cells stably expressing hERG
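Note: peak tail current of the secondary pulse compared with the same well before compound.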

Chain of human ether-à-go-go-related gene (hERG) potassium channel (Q12809 whole entry, looked up): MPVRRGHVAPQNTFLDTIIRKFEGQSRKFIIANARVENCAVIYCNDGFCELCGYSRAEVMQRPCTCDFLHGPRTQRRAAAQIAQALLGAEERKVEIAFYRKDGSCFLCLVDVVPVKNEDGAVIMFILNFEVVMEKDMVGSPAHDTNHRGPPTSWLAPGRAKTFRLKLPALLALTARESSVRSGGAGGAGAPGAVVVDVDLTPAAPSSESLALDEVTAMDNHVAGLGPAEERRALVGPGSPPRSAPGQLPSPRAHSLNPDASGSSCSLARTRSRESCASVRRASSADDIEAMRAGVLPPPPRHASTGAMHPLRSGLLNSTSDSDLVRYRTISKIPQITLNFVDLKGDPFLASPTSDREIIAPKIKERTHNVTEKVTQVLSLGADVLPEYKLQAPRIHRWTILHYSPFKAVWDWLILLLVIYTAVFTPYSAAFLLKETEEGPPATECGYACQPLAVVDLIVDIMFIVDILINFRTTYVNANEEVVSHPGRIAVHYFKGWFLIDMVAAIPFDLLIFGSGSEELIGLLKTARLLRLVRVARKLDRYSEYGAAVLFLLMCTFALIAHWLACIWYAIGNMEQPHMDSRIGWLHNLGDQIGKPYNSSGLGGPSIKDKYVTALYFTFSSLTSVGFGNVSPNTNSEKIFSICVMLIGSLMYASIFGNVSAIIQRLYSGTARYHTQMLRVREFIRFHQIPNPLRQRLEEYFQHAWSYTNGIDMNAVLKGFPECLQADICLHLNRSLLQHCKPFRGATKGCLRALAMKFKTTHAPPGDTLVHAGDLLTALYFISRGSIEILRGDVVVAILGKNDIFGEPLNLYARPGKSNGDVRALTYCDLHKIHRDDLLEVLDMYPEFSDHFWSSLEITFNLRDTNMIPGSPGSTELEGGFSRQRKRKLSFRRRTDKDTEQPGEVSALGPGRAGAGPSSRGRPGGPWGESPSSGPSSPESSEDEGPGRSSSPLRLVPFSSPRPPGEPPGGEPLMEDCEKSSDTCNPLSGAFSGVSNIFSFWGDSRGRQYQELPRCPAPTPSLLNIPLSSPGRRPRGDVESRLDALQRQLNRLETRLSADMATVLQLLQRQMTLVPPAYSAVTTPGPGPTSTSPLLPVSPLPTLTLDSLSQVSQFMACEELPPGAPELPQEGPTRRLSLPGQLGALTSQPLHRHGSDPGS

Structure (SMILES) | hERG current change (%, negative = inhibition) at 10uM [%]
Cc1c(Br)c([N+](=O)[O-])nn1C(C)C(=O)NCc1ccco1 (centres unmarked) | -2.31
O=C(O)/C=C/C(=O)Nc1cccnc1 | 8.86
CCOc1c(Cl)cc(/C=N/NC(N)=S)cc1OC | 6.36
Cc1nonc1NCn1nnc2ccccc21 | 11.5
COc1cc2c(cc1OC)CN(CC(=O)Nc1ccc(F)cc1)CC2 | -7.62
CCOc1ccccc1NC(=O)c1ccoc1C | 15.5
CC(=O)Nc1ccc(S(C)(=O)=O)c(C)c1 | 3.53
CC(C)C[C@H](NC(=O)NC(C)C)C(=O)O | 3.08
Cc1ccccc1CN1C(=O)c2ccccc2Sc2ccc(C(=O)NCCN3CCOCC3)cc21 | -69.6
COc1ccc(CN(CC(=O)NCc2ccccc2)C(=O)CCC(=O)Nc2nccs2)cc1 | -1.67
CCOCCOc1nc(C)cc(C)c1S(=O)(=O)c1ccccc1C | -4.15
CC(C)(C)OC(=O)NCCCCc1cn(CC(=O)N2CCN(C(=O)OC(C)(C)C)CC2)nn1 | 26.3
CCOC(=O)NCc1ccc(S(=O)(=O)Nc2c(C)cccc2C)cc1 | -4.3
CCN(C(=O)COC(=O)CNC(=O)c1ccccc1C)C1=CCCCC1 | -10
Cc1cc(NC(=S)NC(=O)c2ccco2)c2ccccc2n1 | -1.51
CC(C)CCNC(=O)C1CCCN(S(=O)(=O)c2ccc3c(c2)CC(C)N3C(=O)C2CC2)C1 (centres unmarked) | -7.5
Cl.OC(CNC1CCCC1)COc1ccc(F)cc1 (centres unmarked) | 5.27
Cc1onc(C(=O)NCc2ccccn2)c1[N+](=O)[O-] | -0.19
Cc1nn(CCN)c(C)c1Cl.Cl | 14.4
O=C(O)CCC(=O)N1CCN(Cc2ccc3c(c2)OCO3)CC1 | 11.6

Structure (SMILES) | hERG current change (%, negative = inhibition) at 10uM [%]
Cc1ccc(NC(=O)CSc2nnc(C)c(=O)n2N)cc1 | 6.33
COc1ccc(C(=O)NCc2ccc(-n3cccc3)cc2)cc1OC | -2.73
O=C(CCCn1c(=S)[nH]c2ccc(Br)cc2c1=O)N1CCN(c2ccccn2)CC1 | -5.36
CC1CN(C(=O)COC(=O)c2cc(Cl)ccc2Cl)CC(C)O1 (centres unmarked) | 2.74
COc1ccc(-n2cnc3scc(-c4ccccc4)c3c2=O)cc1 | -1.83
CC(C)OP(=O)(Nc1cccc2ccccc12)OC(C)C | 9.36
CC(C)(C)c1nc2scc(-c3cccs3)c2c(=O)o1 | 2.24
COc1ccc(S(=O)(=O)N2CCCOC2CNC(=O)C(=O)NCCCN2CCOCC2)cc1 (centres unmarked) | 16.4
Cc1ccc(-c2csc(NC(=O)c3cccc([N+](=O)[O-])c3)n2)cc1 | 1.35
COC(=O)CSC(C(=O)Nc1ccc(C)c(C)c1)c1ccccc1 (centres unmarked) | -24.8
CN(CC(=O)Nc1c(Cl)cccc1Cl)C(=O)Cc1ccc2c(c1)CCC2 | 15.9
CC(=O)C1C(c2ccc(F)cc2)c2c(noc2C)CC1(C)O (centres unmarked) | 12.5
Cc1ccc(S(=O)(=O)NCCc2ccc(S(N)(=O)=O)cc2)cc1 | -9.19
CSc1ccccc1OCc1cc(C(=O)N(C)Cc2cc(C)[nH]n2)no1 | -14.8
CC(=O)Nc1ccc(NC(=O)/C=C/c2cccc(C(F)(F)F)c2)cc1 | -1.91
CC1CCN(Cc2cnc(Cl)s2)CC1 | 4.56
CC(=O)NCc1ccc(-c2csc(N)n2)s1 | 10.4
C/C(=N\Nc1cccc(Cl)c1)C1(C)N(O)C(C)(C)C(c2ccco2)=[N+]1[O-] (centres unmarked) | 3.88
CC(C)NC(=O)NC(=O)COC(=O)c1cc(S(=O)(=O)N2CCCCC2)ccc1N1CCOCC1 | -1.77
Cc1ccc(NS(=O)(=O)c2cc3c(cc2C)NC(=O)CO3)cc1 | -21

Structure (SMILES) | hERG current change (%, negative = inhibition) at 10uM [%]
Cc1ccc(C(=O)OCC(=O)NCC2CCCO2)c(C)c1 (centres unmarked) | 9.22
O=C(Nc1nc(-c2ccc(F)c(F)c2)cs1)C1=COCCO1 | -1.64
CC1CC(C)CN(CCCNC(=O)CN2C(=O)CSc3ccc(S(=O)(=O)N4CCCCC4)cc32)C1 (centres unmarked) | -50.2
COc1cc(NC(=O)c2ccc3c(SCC(=O)O)c4c(nc3c2)CCCC4)cc(OC)c1OC | 12.3
Cc1ccc(NC(=O)CN2C(=O)N/C(=C/c3ccco3)C2=O)cc1 | 0.551
CC(=O)Nc1ccc(S(=O)(=O)N2CCN(c3ccc([N+](=O)[O-])cc3)CC2)cc1 | -28.9
O=C1COc2ccc(S(=O)(=O)Nc3cccc(Cl)c3)cc2N1 | -2.4
Cc1ccc(C(C)C)c(OCC(=O)N/N=C/c2ccc(S(=O)(=O)[O-])o2)c1 | 12.1
CS(=O)(=O)N1CCC(C(=O)Nc2ccc(Cl)cc2)CC1 | 3.58
CCCOc1ccc(-c2c(C(=O)N/N=C/c3ccncc3)nnn2-c2nonc2N)cc1 | 15.1
COc1ccc(NC(=O)CSc2nc(C(C)C)nc3c2c(=O)n(C)c(=O)n3C)c(OC)c1 | 23.5
Oc1c(C(c2ccccc2Cl)N2CCCC2)ccc2cccnc12 (centres unmarked) | 5.2
COCCn1c(C)cc(C(=O)COc2nc3ccccc3nc2C)c1C | -0.0779
COCCNC(=O)C1c2cc(OC)c(OC)cc2C(=O)N(C)C1c1cccnc1 (centres unmarked) | 9.12
CCCCn1c(CCC(=O)O)nc2c1c(=O)[nH]c(=O)n2CCC | -38.7
CSc1nnc(CNS(=O)(=O)c2ccc(Br)cc2)n1C | 5.86
CN1CCN(C(=S)Nc2ccc(Cl)c(Cl)c2)CC1 | -29.5
CC[N+](CC)(CC)CCCCCCCCCC[N+](CC)(CC)CC.[Br-] | 5.32
CCOC(=O)C1CCN(C(=O)CN(c2ccc(OC)cc2)S(=O)(=O)c2c(C)nn(C)c2C)CC1 | -2.41
